Measurements published in PubChem BioAssay AID1768 (National Center for Advancing Translational Sciences (NCATS), 2009).
The whole screen tested about 270,000 compounds, of which about 620 (0.23%) were called active. Inconclusive means that the source gave no clear call. Such entries were picked first, then a sample of the others. The call rests on the fitted dose curve; in most records, active means well fitted inhibition curve with a large enough effect in the polarisation, with a control signal flat (not every such curve was filed as active); inconclusive means small, poorly fitted or top-dose-only effect, or effect the other way, or a change in a side signal; inactive means no such curve, though single readings can be large or run the other way; the % refers to the polarisation. Potencies beside an inconclusive call are fits to weak or partial responses and may not hold up. A note “side channel” means that the fit belongs to a control or component signal, not to the main read-out.

Each compound was assayed against Menin (Homo sapiens) (UniProt O00255) (assay: qHTS Assay for Inhibitors Targeting the Menin-MLL Interaction in MLL Related Leukemias: Competition With Texas Red Labeled MLL-derived Mutant Peptide). Conditions: fluorescence polarization; series mostly up to 61.6 µM.
Potency means the concentration at half of the fitted maximal effect; tags describe the fitted curve by direction and shape or compound fluorescence and quenching.

Sequence of UniProt O00255 (O00255 whole entry, looked up): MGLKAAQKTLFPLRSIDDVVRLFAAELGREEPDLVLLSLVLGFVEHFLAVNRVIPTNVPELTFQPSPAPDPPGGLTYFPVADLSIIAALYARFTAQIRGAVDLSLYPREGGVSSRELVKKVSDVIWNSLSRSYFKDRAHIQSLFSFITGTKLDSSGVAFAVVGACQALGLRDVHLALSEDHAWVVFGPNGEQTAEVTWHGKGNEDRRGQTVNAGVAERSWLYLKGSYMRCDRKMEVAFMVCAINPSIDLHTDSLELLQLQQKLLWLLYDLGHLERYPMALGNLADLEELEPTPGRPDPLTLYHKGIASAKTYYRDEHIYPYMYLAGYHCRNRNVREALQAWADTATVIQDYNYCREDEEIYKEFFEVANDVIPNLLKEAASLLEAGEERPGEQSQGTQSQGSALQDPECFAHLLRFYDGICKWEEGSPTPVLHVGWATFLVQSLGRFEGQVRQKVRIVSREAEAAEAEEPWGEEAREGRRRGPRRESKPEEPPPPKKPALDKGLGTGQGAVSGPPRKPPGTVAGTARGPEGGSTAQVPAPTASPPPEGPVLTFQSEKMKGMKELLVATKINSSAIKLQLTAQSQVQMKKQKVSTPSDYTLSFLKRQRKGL

Row | SMILES | Potency
1 | COc1ccc2oc(=O)cc(-c3cc4cccc(OC)c4o3)c2c1 | inconclusive: 20 µM [inhibitor, partial curve]
2 | COc1ccc(C2C(=O)N(C3CCCCC3)CC(=O)N2Cc2ccc3c(c2)OCO3)cc1 (stereo unspecified) | inconclusive: 25.1 µM [inhibitor, single point]
3 | Cc1[nH]c2ccccc2c1/C=N/NC(=O)c1cc(-c2cccs2)[nH]n1 | inconclusive: 14.1 µM [quencher, side channel, partial curve]
4 | CC(=O)N(CN1C(=O)c2ccccc2C1=O)c1cccc(C)c1 | inactive
5 | CC(C)c1ccc(-c2csc(NC(=O)c3cccs3)c2C(=O)O)cc1 | inconclusive: 15.8 µM [quencher, side channel, partial curve]
6 | O=C1c2ccccc2NC(c2ccccc2)N1Cc1ccco1 (stereo unspecified) | inconclusive: 25.1 µM [quencher, side channel, single point]
7 | Cc1cc(NC(=O)c2ccc(Cl)cc2)n(-c2ccccc2)n1 | inconclusive: 2.51 µM [inhibitor, full curve, poor fit]
8 | COc1ccc(CNC(=O)COC(=O)c2cc(-c3cccs3)nc3ccccc23)cc1OC | inconclusive: 4.47 µM [quencher, side channel, full curve, poor fit]
9 | CCC(=O)NC(c1ccc(OC)c(OC)c1)c1cc(Cl)c2cccnc2c1O (stereo unspecified) | inconclusive: 39.8 µM [quencher, side channel, single point]
10 | Cc1nnc2sc(-c3ccc(N(C)C)cc3)nn2c1=O | inconclusive: 39.8 µM [quencher, side channel, single point]
11 | Cn1c2ccc(F)cc2c2ncn(CCCN(CCO)CCO)c(=O)c21 | inconclusive: 39.8 µM [inhibitor, single point]
12 | O=C(O)CCc1ccc(-c2cccs2)n1CCc1ccccc1 | inconclusive: 20 µM [quencher, side channel, single point]
13 | Cc1ccc(-n2ncc(C(=O)NCC3CCN(C4CCCC4)C3)c2C2CCN(C(=O)OC(C)(C)C)CC2)cc1 (stereo unspecified) | inconclusive: 28.2 µM [inhibitor, partial curve, poor fit]
14 | Cc1ccc2c(c1)C(c1ccc(F)cc1)N(C(=O)c1ccc(S(=O)(=O)N(C)C)cc1)CC(=O)N2 (stereo unspecified) | inconclusive: 39.8 µM [inhibitor, single point]
15 | COc1ccc(/C=C2/C(=O)N(c3ccccc3)N=C2C)cc1OC | inactive
16 | COc1ccccc1NC(=S)NCc1ccc2c(c1)cc(C)n2C | inconclusive: 35.5 µM [inhibitor, single point]
17 | COc1ccccc1NC(=O)COc1ccc(/C=N/NS(=O)(=O)c2ccc(C)cc2)cc1 | inconclusive: 39.8 µM [inhibitor, single point]
18 | COc1cccc(N(CC(=O)NC(C)c2ccccc2)S(C)(=O)=O)c1 (stereo unspecified) | inactive

Row | SMILES | Potency
19 | Cc1oc2cc3oc(=O)c(CCC(=O)NCCCN4CCOCC4)c(C)c3cc2c1C | inconclusive: 39.8 µM [inhibitor, single point]
20 | O=C(O)CCCC(=O)Nc1nc(-c2ccc(F)cc2)cs1 | inactive
21 | C#CCOCCOCCOCCNc1nc(N2CCOCC2)nc(N2CCN(C(=O)[C@H](Cc3cc4ccccc4[nH]3)n3cc([C@@H](N)C(C)CC)nn3)CC2)n1 (stereo partly specified) | inconclusive: 1.12 µM [fluorescent, side channel, full curve]
22 | Cc1c(C=O)c2ccccn2c1C(=O)c1ccncc1 | inconclusive: 39.8 µM [inhibitor, single point]
23 | Cc1c2c(nc3ccccc13)CCC(C(C)(C)C)C2 (stereo unspecified) | inconclusive: 15.8 µM [fluorescent, side channel, partial curve]
24 | CC(C)CNC(=O)c1c2c(nc3ccccc13)-c1ccccc1CC2 | inconclusive: 31.6 µM [inhibitor, single point]
25 | CCN1CCN(C(=O)/C=C/c2ccc3c(c2)OCO3)CC1 | inconclusive: 8.91 µM [inhibitor, single point]
26 | Cc1ccc(-n2c(O)c(/C=N/Nc3ccc(S(=O)(=O)N4CCOCC4)cc3[N+](=O)[O-])c3ccccc3c2=O)c(C)c1 | inconclusive: 14.1 µM [quencher, side channel, partial curve]
27 | COc1ccc(C(=O)C2CCN(C(=S)NCCc3ccc(OC)c(OC)c3)CC2)cc1 | inconclusive: 10 µM [quencher, side channel, partial curve]
28 | COc1ccccc1N(C(=O)c1snc(C(N)=O)c1N)C(C(=O)NC1CCCC1)c1ccc(N(C)C)cc1 (stereo unspecified) | inconclusive: 3.55 µM [inhibitor, full curve, poor fit]
29 | COc1cc2c(cc1OC)CN(C(=S)Nc1ccccc1Cl)CC2 | inactive
30 | COc1ccc(-c2cc(=O)n(-c3ccc([N+](=O)[O-])cc3)[nH]2)cc1 | inconclusive: 14.1 µM [quencher, side channel, partial curve]
31 | CN(C)c1ccc(/C=N/OC(=O)Nc2ccccc2)cc1 | inconclusive: 25.1 µM [quencher, side channel, single point]
32 | CC1CCN(c2nc3c(c(=O)[nH]c(=O)n3C)n2Cc2ccccc2)CC1 | inconclusive: 39.8 µM [fluorescent, side channel, single point]
33 | CCc1[nH]nc(C(=O)N2CCCC(CCC(=O)N3CCN(c4ccccn4)CC3)C2)c1C (stereo unspecified) | inconclusive: 39.8 µM [fluorescent, side channel, single point]
34 | COc1cccc(CN(C)C(=O)c2cc(COc3c(F)cccc3F)on2)c1 | inconclusive: 39.8 µM [fluorescent, side channel, single point]
35 | C[C@](O)(C(=O)Nc1ccc(S(=O)(=O)c2ccccc2)cc1)C(F)(F)F | inconclusive: 14.1 µM [quencher, side channel, partial curve]
36 | Cc1ccc(CN2CCN(Cc3nc4c(s3)CCCC4)CC2CCO)cc1 (stereo unspecified) | inconclusive: 3.55 µM [fluorescent, side channel, full curve, poor fit]
